PubChem BioAssay AID1454 (National Center for Advancing Translational Sciences (NCATS), 2008)
In all, about 130,000 compounds went through this assay and about 550 (0.42%) were called active. This list was built around the results that the source calls inconclusive (neither active nor inactive); the mix of calls is not that of the screen. The call rests on the fitted dose curve; in most records, active means well fitted inhibition curve with a large enough effect; inconclusive means small, poorly fitted or top-dose-only effect, or effect the other way; inactive means flat fitted curve, though single readings scatter. No potency is given beside an inconclusive call; the fits are too rough.

Test: qHTS Assay for Inhibitors of the ERK Signaling Pathway using a Homogeneous Screening Assay; Stimulation with EGF; further: nearly all actives have a fitted effect of over 55% in size;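 on activity change, negative = inhibition: plate controls were stimulated vehicle wells for no effect and unstimulated vehicle basal for full effect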
Conditions: HEK293-V1b, EGF-stimulated phospho-ERK AlphaScreen; activity change, negative = inhibition: at the top concentration
Outline: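 In this qHTS, HEK293 cells with stable type-1 vasopressin (V1b) receptor were exposed to compound at 37C for 30 min, stimulated 5 min with EGF at 25 nM, lysed, and probed for phospho-ERK by AlphaScreen.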
Potency means the concentration at half of the fitted maximal effect; tags describe the fitted curve by direction and shape.

Structure (SMILES) | Potency | activity change, negative = inhibition
Cc1cccc(CSc2nc3ccncc3n2CC(=O)Nc2cc(C)cc(C)c2)c1 | inconclusive [inhibitor, single point] | –
Cc1ccc2[nH]c(=O)c3cc(C(=O)NCC4CCCO4)sc3c2c1 (centres undefined) | inconclusive [inhibitor, single point] | –
O=c1c2cc(Cl)ccc2nc(-c2ccc(Cl)c(Cl)c2)n1O | inconclusive [inhibitor, single point] | –
CC(C)c1ccccc1NC(=O)COC(=O)c1ccc(Cl)c(S(=O)(=O)N2CCCCCC2)c1 | – | inactive: -8.33%
COC(=O)[C@@]1(Cc2ccc(OC)cc2)[C@@H]2C(=CC(=O)[C@H]2CC(=O)C(=O)N(C)C)CN1C(=O)c1ccccc1 | inactive | –
COc1cc(O)c(C(CCN2CCCCC2)c2ccc(N(C)C)cc2)c(OC)c1 (centres undefined) | inconclusive [inhibitor, partial curve] | –
CCN(CC)CC(=O)Nc1c(C)cccc1C | inconclusive [activator, single point] | –
Cn1cccc1/C=N/N1CCN(Cc2ccccc2)CC1 | inconclusive [inhibitor, single point] | –
Cc1cccc(C)c1Nc1c(-c2ccccn2)nc2ccccn12 | inconclusive [inhibitor, partial curve] | –
CN(C)S(=O)(=O)c1cccc(-c2cn3cccnc3n2)c1 | inconclusive [inhibitor, full curve, poor fit] | –
Cc1cc(C=O)c(C)n1-c1ccc(N2CCCCC2)c([N+](=O)[O-])c1 | inconclusive [inhibitor, single point] | –
CCOc1ccccc1N(CC(=O)NCc1ccccc1)C(=O)CCC(=O)Nc1cc(C)ccn1 | inconclusive [inhibitor, single point] | –
S=C(Nc1ccccc1)NC1CCN(Cc2ccccc2)CC1 | inconclusive [inhibitor, partial curve] | –
CCCCCC1=C2CNC(CC(C)C)(C(=O)OC)C=C2C(C)C1=O (centres undefined) | – | inactive: -7.65%
CC(C)C12CN3CC(C(C)C)(CN(C1)C31C(=O)Nc3ccccc31)C2=O (centres undefined) | inconclusive [inhibitor, single point] | –
O=C(COC(=O)c1ccc2c(c1Cl)C(=O)c1ccccc1C2=O)NC1CC1 | inconclusive [inhibitor, single point] | –
Cc1cc(NO)c(C(C)C)cc1N=O | – | inactive: -0.545%
COc1ccc(Oc2ncc3nc(-c4cc(F)cc(F)c4)c(=O)n(C)c3n2)cc1 | inconclusive [inhibitor, single point] | –
c1ccc(-c2ccc(N3CCCC4(CCNCC4)C3)cc2)cc1 | inconclusive [inhibitor, full curve, poor fit] | –
CN(C)S(=O)(=O)c1ccc(Cl)c(C(=O)Nc2cccc([N+](=O)[O-])c2)c1 | inconclusive [inhibitor, single point] | –
COc1ccc(/C=C/C(=O)OCc2cccc([N+](=O)[O-])c2)cc1 | – | inactive: -10.4%
C[C@@]12CCC(O)C[C@H]1CCc1ccccc12 (some centres undefined) | – | inactive: 20.8%

Structure (SMILES) | Potency | activity change, negative = inhibition
COC(=O)C1=CN(CCOC23CC4CC(CC(C4)C2)C3)C=C(C(=O)OC)C1c1ccsc1 | inconclusive [activator, single point] | –
S=C(Nc1ccc(Oc2ccccc2)cc1)N1CCN(c2ccccn2)CC1 | inconclusive [inhibitor, partial curve, poor fit] | –
Cc1ccc(-n2nc(C)c3c(C)c(CCC(=O)Nc4ccc(CN5CCCC5)cc4)c(C)nc32)cc1 | inconclusive [inhibitor, single point] | –
Cc1c(N=c2scc(-c3ccccc3)n2CCO)c(=O)n(-c2ccccc2)n1C | inconclusive [inhibitor, full curve, poor fit] | –
CC(=O)N1CC=CC1(CC(C)C)C(=O)NCc1ccc(C)o1 (centres undefined) | – | inactive: -0.754%
CC(C)(C)c1cc(-c2csc(Nc3ccccc3)[n+]2Cc2ccc(C(=O)O)cc2)cc(C(C)(C)C)c1O | inconclusive [inhibitor, single point] | –
C/C(CCc1ccc2c(c1)OCO2)=N\NC(=O)c1ccc(C)cc1C | inconclusive [inhibitor, single point] | –
CCCc1cc2c(cc1NC(=O)c1ccc(C(C)(C)C)cc1)OCO2 | inconclusive [inhibitor, single point] | –
Cc1ccccc1/C=N/N1CCN(c2ccccc2)CC1 | inconclusive [inhibitor, partial curve] | –
COC(=O)C1C(c2ccc(OC)cc2)C(C(=O)OC)S(=O)(=O)C(CCN2CCCCC2)S1(=O)=O (centres undefined) | inconclusive [inhibitor, single point] | –
FC(F)(F)c1ccc2c(c1)N1CCCC1CN2 (centres undefined) | inconclusive [inhibitor, single point] | –
CC(=O)C1C(=O)C=C(c2cccs2)CC1c1ccccc1 (centres undefined) | inconclusive [inhibitor, single point] | –
Clc1ccccc1/C=C/c1ccnc2ccccc12 | inconclusive [inhibitor, partial curve] | –
CC1=CC(=C2C=CC(=O)C=C2)C=C(C)N1C | – | inactive: -3.26% [at 57.5 µM]
COc1cc(/C=C2/CC/C(=C/c3ccc(O)c(OC)c3)C2=O)ccc1O | inconclusive [inhibitor, partial curve, poor fit] | –
Clc1cccc2c1Sc1ccccc1CC2N1CCNCC1 (centres undefined) | active: 28.2 µM | –
O=C(C1=NN(c2ccccc2)C2C(=O)N(c3cccc(Cl)c3)C(=O)C12)c1ccccc1 (centres undefined) | inconclusive [activator, partial curve] | –
CC(=O)c1cc(-c2ccccc2)n(CCC(=O)NC(C)(C)C)c1C | inconclusive [inhibitor, single point] | –
CCCCCCCCCCOC(=O)NC1CCS(=O)(=O)C1 (centres undefined) | inconclusive [inhibitor, partial curve, poor fit] | –
CC(=O)c1cc(C(=O)c2ccccc2)sc1Nc1ccccc1 | inconclusive [activator, single point] | –
CC(C)c1ccc2c(c1)CCC1C(C)(CN)CCCC21C (centres undefined) | inconclusive [inhibitor, single point] | –
COc1ccc(-c2c(C)nn3c(-c4ccccc4)cc(C)nc23)cc1 | inconclusive [inhibitor, partial curve] | –

Structure (SMILES) | Potency | activity change, negative = inhibition
Cc1ccc(OCC(=O)Nc2ccc(C)c(S(=O)(=O)N3CCCCCC3)c2)c([N+](=O)[O-])n1 | inconclusive [inhibitor, single point] | –
CC(C)(C)NC(=O)COC(=O)CCC(=O)c1ccc(Cl)cc1 | inconclusive [activator, full curve] | –
Cc1noc(C)c1C(=O)N1CCC[C@@]2(CCN(c3cccc(-c4ccccc4)c3)C2)C1 | – | inactive: -4%
CCCn1c(-c2ccc(F)cc2)nc2c(NCCCN(CC)CC)nc(C)nc21 | – | inactive: 1.02%
O=[N+]([O-])c1ccc(N=NNc2ccccc2)cc1 | inconclusive [inhibitor, single point] | –
Ic1ccc(N2CCN(Cc3c[nH]c4ncccc34)CC2)cc1 | inconclusive [inhibitor, single point] | –
CCC(C)C1NC(=O)C(CCNCS(=O)(=O)O)NC(=O)C(NC(=O)C(CCNCS(=O)(=O)O)NC(=O)C(NC(=O)C(CCNCS(=O)(=O)O)NC(=O)CCCCC(C)C)C(C)O)CCNC(=O)C(C(C)O)NC(=O)C(CCNCS(=O)(=O)O)NC(=O)C(CCNCS(=O)(=O)O)NC(=O)C(C(C)CC)NC1=O (centres undefined) | – | inactive: 1.66%
COc1ccc(NC(=O)Nc2cccc(Cl)c2Cl)c(OC)n1 | inconclusive [inhibitor, single point] | –
O=C(CCNC(=O)c1ccccc1Cl)Nc1ccc(Br)c(C(F)(F)F)c1 | active: 28.2 µM | –
O=C(/C=C/c1ccc(N2CCCCC2)c([N+](=O)[O-])c1)c1ccc(O)cc1 | inconclusive [inhibitor, partial curve] | –
CCc1nc(NC(=O)NS(=O)(=O)c2ccccc2C(=O)OC)nc(OC)n1 | – | inactive: 5.01% [at 57.5 µM]
CCN(CC)S(=O)(=O)c1cccc(C(=O)N/N=C(\C)c2ccc(O)cc2O)c1 | inconclusive [inhibitor, partial curve] | –
Cc1cccc(NC(=O)CSc2nnc(-c3n[nH]c4ccccc34)o2)c1 | – | inactive: 2.64%
CCOC(=O)c1sc2nc(C)nc(SCC(=O)N(C)C3CCS(=O)(=O)C3)c2c1C (centres undefined) | – | inactive: 11.7%
COC(=O)[C@@H](NC(=O)O[C@@H]1C(=O)c2cc(OC)ccc2O[C@H]1c1ccc(OC)c(Br)c1)C(C)C | – | inactive: -6.18%
CCN(c1ccc(N=Cc2c(O)n(Cc3ccc(OC)cc3)c(=O)c3ccccc23)cc1)C(C)C | inconclusive [activator, partial curve] | –
COc1cccc(C(=O)NC(c2ccccc2)C2CCCC2)c1 (centres undefined) | inconclusive [inhibitor, single point] | –
Cc1cccc2sc(NNC(=O)c3ccc(S(=O)(=O)N4CCCC(C)C4)cc3)nc12 (centres undefined) | inconclusive [inhibitor, partial curve] | –
Cc1cc(C)cc(NC(=S)NCCc2c[nH]c3ccccc23)c1 | inconclusive [inhibitor, single point] | –
Fc1ccc(N2CCN(C3=Nc4cccc5cccc3c45)CC2)cc1 | inconclusive [inhibitor, partial curve] | –
